# Experimental data as given in PubChem BioAssay AID686979 (National Center for Advancing Translational Sciences (NCATS), 2013).
# Hit rate of the full screen: of about 420,000 compounds, about 50,000 (12%) were called active. Roughly 26% stayed inconclusive and do not appear here. The call rests on the fitted dose curve; in most records, active means well fitted inhibition curve with a large enough effect; inconclusive means small, poorly fitted or top-dose-only effect; inactive means flat fitted curve, though single readings scatter. The entries are a selection whose mix differs from that of the whole data set. Where a structure was tested more than once in an assay, its records may differ in their call.
# Experiment: qHTS for Inhibitors of human tyrosyl-DNA phosphodiesterase 1 (TDP1): qHTS in cells in presence of CPT; further: nearly all actives have a fitted effect of over 55% in size
# Details: chicken DT40 Tdp1-/-;hTDP1 cells + 20 nM CPT, ATP luminescence, 48 h; series mostly up to 46.2 µM; activity change, negative = growth inhibition: at the top concentration
# Method in brief: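 Chicken DT40 Tdp1-/- cells complemented with human TDP1, 400 cells/well, exposed to compounds plus 20 nM camptothecin for at least 48 h at 37 C; viability read as ATP content by CellTiter-Glo luminescence.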
# On the % scale 0 is the no-effect control and ±100 the full control effect; potency means the concentration at half of the fitted maximal effect.
Structure (SMILES),"activity change, negative = growth inhibition",Potency
CCCS(=O)(=O)N1CCN(C2Cc3ccccc3C2)CC1,inactive: 3.04%,
CCOc1ccc(C(=O)Nc2ccc3nc(SCC(=O)N(C)c4ccccc4)sc3c2)cc1,,active: 2.06 µM
CCc1ccc(NC(=O)N(Cc2cn(CC)c3ccccc23)C2CCCCC2)cc1,,active: 7.31 µM
COc1cc2[nH]c(C)c(-c3ccccc3)c(=O)c2cc1Cl,inactive: -3.77%,
CC1(C)CCCC2=C1CC1C(=O)N(N)C(=O)C1C2 (stereo not drawn),inactive: 33.9%,
C[C@]12CC[C@@H]3c4ccc(O)cc4CC[C@H]3[C@@H]1CC[C@@H]2O,inactive: -22.8%,
CC1CC2C3CCC4=CC(=O)C=CC4(C)C3(F)C(O)CC2(C)C1(O)C(=O)CO (stereo not drawn),inactive: -23.2%,
Cn1cc(NC(=O)c2cc(NC(=O)c3cc(NC=O)cn3C)cn2C)cc1C(=O)NCCC(=N)N,inactive: 20.9%,
CCN(CC)CCCNc1nc2cc(OC)c(OC)cc2c2nc(-c3cccnc3)nn12,,active: 14.6 µM
CC1=C(CC(=O)O)c2cc(F)ccc2/C1=C\c1ccc(S(C)=O)cc1 (stereo not drawn),,inactive
COc1ccccc1NC(=S)NC1CCC(CC2CCC(NC(=S)Nc3ccccc3OC)CC2)CC1 (stereo not drawn),,active: 10.3 µM
CCCc1cc(=O)[nH]c(=S)[nH]1,,inactive
CN(C)S(=O)(=O)c1ccc(C(=O)Oc2ccccc2)cc1,inactive: 39.4%,
COc1cc(C(=O)NCCCc2nc3ccccc3n2CC(C)C)cc(OC)c1OC,,active: 20.6 µM
O=C(O)c1cccc(S(=O)(=O)N2CCN(c3ccccn3)CC2)c1,inactive: 31.5%,
CCN(CC)c1nc(SCCOC(=O)Nc2ccccc2)nc(N(CC)CC)n1,,active: 18.4 µM
COc1ccccc1C(=O)N/C(=C\c1ccc(Br)cc1)C(=O)N1CCCC1,inactive: -29.7%,
O=C(CNC(=O)c1cccs1)OCc1c(F)cccc1Cl,inactive: 30%,
COc1ccc(N2C(=S)NC3CS(=O)(=O)CC32)cc1 (stereo not drawn),inactive: 30.2%,
COc1ccc(N2CCN(C(=O)c3nn(C)c4c3CS(=O)(=O)c3ccccc3-4)CC2)cc1,inactive: -2.2%,
O=C(O)c1ccc(NCc2nc3ccccc3n2CCOc2ccccc2Cl)cc1,inactive: 2.89%,
Cc1ccc(N2CC(C(=O)NCCS(=O)(=O)N3CCN(c4ccccc4F)CC3)CC2=O)cc1 (stereo not drawn),inactive: 12.4%,
Cc1cccc(CSc2nc3c(c(=O)[nH]2)CCC3)c1,inactive: -27.7%,
COc1c(O)cc2c(c1O)C1OC(CO)C(O)C(O)C1OC2=O (stereo not drawn),inactive: 11.3%,
COc1ccccc1/C=C\C=N\NC(=O)CCn1nnc2ccccc21,inactive: -22.3%,
COc1cc(-c2noc(C)c2C#CC2(O)CCCCC2)cc(OC)c1OC,inactive: -109%,
c1ccc2c(C[C@@H]3CNCCN3CCC34CC5CC(CC(C5)C3)C4)cccc2c1,,active: 18.4 µM
O=C(O)c1cc(O)c2c(c1)C(=O)c1cccc(O)c1C2=O,inactive: -11.4%,
